# Source: ChEMBL document CHEMBL1201862, “PubChem BioAssay data set” (2004)
#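 Method: 48-hour compound exposure of cells in 96-well plates, five concentrations, linear interpolation of endpoints. GI50: concentration for 50% inhibition of growth.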 The source made the active and inactive calls. Rule as the data show it: active = GI50 up to about 1.1 µM and inactive = higher.
# Tested on: NCI-H322M
# Assay: growth of human tumour cells (NCI), 48 h
row,SMILES,GI50
1,CC(=O)C1C(=O)C(=O)N(c2cccc(C)c2C)C1=O (configuration not stated),inactive: > 100 µM
2,C#Cc1ccccc1C(=O)OC,inactive: > 100 µM
3,COc1ccc2c(c1)OCc1c-2oc2ccccc2c1=O,inactive: > 100 µM
4,CCN(CC)CCCNC(=O)C1COc2cc(-c3cc(=O)c4ccccc4o3)ccc2O1 (configuration not stated),inactive: > 100 µM
5,OCCCC(O)(c1ccccc1)c1ccccc1,inactive: > 100 µM
6,OCC(O)C(OC1OC(CO)C(O)C(O)C1O)c1nn(-c2ccc(Cl)cc2)c2nc3cc(Cl)c(Cl)cc3nc12 (configuration not stated),inactive: 91 µM
7,Nc1ccc(Nc2cc(=O)[nH]c(=O)[nH]2)cc1Cl,inactive: > 100 µM
8,O=C(O)CCC(NC(=O)c1ccc(Nc2cnc3cc(C(F)(F)F)ccc3n2)cc1)C(=O)O (configuration not stated),inactive: > 100 µM
9,Cn1c2ccccc2n2c(=O)c3cc([N+](=O)[O-])ccc3c(C#N)c12,inactive: > 100 µM
10,OCC1OC(O)C(/N=C\c2ccc3c(c2)OCO3)C(O)C1O (configuration not stated),inactive: > 100 µM
11,N=C(N)NS(=O)(=O)c1ccc(Nc2c3ccccc3nc3c(C(=O)N4CCN(CCO)CC4)ccc(Cl)c23)cc1,inactive: > 100 µM
12,O=C(O)c1c2c(c(C(=O)O)c3ccccc13)-c1ccccc1-2,inactive: 35.1 µM
13,COc1ccc(-c2onc(-c3c(C)cc(C)cc3C)c2C2=NCCCN2)cc1,inactive: 46.1 µM
14,C=CCNC(=S)N/N=C1\C(=O)N(CN2CCOCC2)c2ccc([N+](=O)[O-])cc21,inactive: 28.2 µM
15,Cc1ccc(O)c(C(=O)CCCC(=O)c2cc(C)ccc2O)c1,inactive: > 100 µM
16,Cc1ccc(NC(=O)CCc2n[nH]c(=S)o2)cc1,inactive: > 100 µM
17,CCc1c(Cc2cccc3ccccc23)n2c(nc1=O)SCC2OCCO (configuration not stated),inactive: 95.9 µM
18,O=c1[nH]cc(F)c(=O)[nH]1 [FLUOROURACIL],inactive: 22.5 µM
19,O=C1OC(c2ccccc2)(c2ccccc2)c2ccc3ccc(F)cc3c21,inactive: > 100 µM
20,O=C(O)CCSC1=NCCN1,inactive: > 100 µM
21,CC(C)CNC(=O)O,inactive: > 100 µM
22,CSc1ncc2c(n1)-c1ccccc1OC2N1CCOCC1 (configuration not stated),inactive: > 100 µM
23,c1ccc2cc(OCC3CO3)c(OCC3CO3)cc2c1 (configuration not stated),inactive: 12.5 µM
24,Cc1ccc(C2(O)CC(c3ccc([N+](=O)[O-])o3)=NN2C(=O)COc2ccc(Cl)cc2)cc1 (configuration not stated),inactive: 6.04 µM
25,CC(C)Oc1cccc(N2C(n3ccnc3)=Nc3ccncc3S2(=O)=O)c1,inactive: 17.8 µM

row,SMILES,GI50
1,NC(=O)n1ncc(Cl)c(Cl)c1=O,inactive: > 100 µM
2,COc1ccc(-c2c(C#N)c(O)n(NS(=O)(=O)c3ccc(C)cc3)c(=O)c2C#N)cc1,inactive: > 100 µM
3,O=C1CSC2(CC(/C=C/c3ccccc3O)=NN2c2cccc(S(=O)(=O)O)c2)N1c1nc2ccccc2s1 (configuration not stated),inactive: 37.2 µM
4,Clc1ccccc1/C=C/c1nsc(/C=C/c2ccccc2Cl)n1,inactive: > 100 µM
5,CS(=O)(=O)O.[Ag],inactive: 17.1 µM
6,Cc1cc(C)c2c(c1)Nc1ccccc1P2c1ccccc1 (configuration not stated),inactive: 33 µM
7,N#C/C(=C\N1CCNC1=S)C(=O)c1ccc2ccccc2c1,inactive: > 100 µM
8,CC(=O)OCCC(O[Si](c1ccccc1)(c1ccccc1)C(C)(C)C)C(C)(C)O (configuration not stated),inactive: > 100 µM
9,C[C@H](CS)C(=O)N1c2ccccc2C[C@H]1C(=O)O,inactive: > 100 µM
10,CN(O)C(=S)c1ccccc1,inactive: 7.41 µM
11,CCCCCCOc1ccc(NC2=C(Cl)C(=O)c3ncccc3C2=O)cc1,inactive: 1.99 µM
12,CC(=O)Nc1sc([N+](=O)[O-])cc1S(=O)(=O)c1ccc(Cl)cc1,inactive: 3.75 µM
13,COc1cc2c(c3c1C=CCO3)C(=O)c1ccccc1C2=O,inactive: 53.1 µM
14,CCCCCCCCCC(=O)OCC1OC(n2cc(F)c(=O)[nH]c2=O)C(N)C(OC(=O)CCCCCCCCC)C1O (configuration not stated),inactive: 20 µM
15,N#CCCN(c1ccc(/C=C2\N=C(c3ccc(Cl)cc3)OC2=O)cc1)S(=O)(=O)c1ccccc1,inactive: > 100 µM
16,O=C1CSSCC(=O)Nc2ccccc2N1,inactive: > 100 µM
17,Cc1ccc(NC(=O)CSc2nnc(Cc3ccccc3)o2)cc1,inactive: > 100 µM
18,CCCCC/C=C1\CC(CO)(COC(=O)CC(C(C)C)C(C)C)OC1=O (configuration not stated),inactive: 11.6 µM
19,CCOC(=O)C(=CNC(=S)N/N=C1\C(=O)Nc2ccccc21)C(=O)OCC,inactive: > 100 µM
20,OCC1C(OCc2ccccc2)C(OCc2ccccc2)C(OCc2ccccc2)CN1Cc1ccccc1 (configuration not stated),inactive: 13 µM
21,O=C(O)c1ccccc1/C=N/N=C1NCCCCN1,inactive: > 100 µM
22,C[n+]1c2ccccc2n2c3ccccc3c(NCc3ccco3)c(C#N)c21,inactive: 2.49 µM
23,CCOC(=O)c1cc(-c2ccc(OC)cc2)c([N+](=O)[O-])[nH]1,inactive: > 10 µM
24,S=c1scc(-c2ccc(Cl)cc2)n1OC1CCCC1,inactive: 49.2 µM
25,Cc1c(-c2ccccc2)cc(O)c2nc3ccccc3n12,inactive: > 100 µM

row,SMILES,GI50
1,COCc1cc2c(cc1/C=C/[N+](=O)[O-])OCO2,inactive: 15.7 µM
2,CO/C=C(/C(=O)OC)c1ccccc1COc1cccc(C(F)(F)F)c1,inactive: 5.87 µM
3,CC(=O)O[C@H]1C[C@]2(C)C(CCC3O[C@@]32C)[C@@]2(CC(c3ccoc3)OC2O)[C@@H]1C (some centres not stated),inactive: > 100 µM
4,C=C1C(=O)OC2/C=C(/C)C3CC(O)C(C)(CC(OC(=O)/C(C)=C/C)C12)O3 (configuration not stated),inactive: 13.2 µM
5,COC(=O)[C@@H]1[C@H]2CC[C@]3(C)[C@@H](OC(C)=O)CC[C@H]3[C@@H]2CC[C@H]1C1(C)SCCS1,inactive: 43.3 µM
6,Cc1n[nH]c(=S)n1/N=C/c1ccc(-c2ccc(Cl)cc2)o1,inactive: > 100 µM
7,N#C/C(C(=O)Nc1ccc(Cl)cc1)=C(/N)N1CCCCC1,inactive: > 100 µM
8,Cn1c(-c2cccs2)cc(-c2ccsc2)c1-c1ccsc1,inactive: 88.9 µM
9,Nc1ccc(C(=O)N/C(=C\c2ccc3c(c2)OCO3)c2nc3c(O)nc(S)nc3[nH]2)cc1,inactive: > 100 µM
10,O=c1[nH]c2cc(F)c(F)cc2nc1Cc1ccccc1,inactive: > 100 µM
11,CN1CCC/C1=N\C#N,inactive: > 100 µM
12,O=C(O)c1[nH]c(C(=O)O)c(CC(F)(F)C(F)(F)C(F)(F)F)c1CC(F)(F)C(F)(F)C(F)(F)F,inactive: > 100 µM
13,COc1ccc2c(c1)-c1c(c3cc(OC)ccc3n1CCN(C)C)CC2,inactive: 13.4 µM
14,CCOC(=O)C1(C)CCC(C(=O)OC)C1=O (configuration not stated),inactive: > 100 µM
15,NCCCNc1ccc2c3c(nn2CCNCCO)-c2c(O)ccc(O)c2C(=O)c13,inactive: 3.08 µM
16,Oc1cccc(/C=N/N=c2/[nH][nH]/c(=N/N=C/c3cccc(O)c3)c3ccccc23)c1,inactive: 22.2 µM
17,CN(C)CCNC(=O)c1ccc(Cl)c2c(Nc3ccc(S(=O)(=O)N=C(N)N)cc3)c3ccccc3nc12,inactive: 4.71 µM
18,N/N=C1\C(=O)N(C2CCCCC2)C(=O)C1C(=O)NC1CCCCC1 (configuration not stated),inactive: > 100 µM
19,CC(C)=CCc1ccc2[nH]c3c(c2c1)C(=O)C(=O)C(C)=C3C(O)C(C)O (configuration not stated),inactive: 18.6 µM
20,Cc1cc(N)c2cc(NC(=O)CCCCCCCCC(=O)Nc3ccc4nc(C)cc(N)c4c3)ccc2n1,inactive: 58.6 µM
21,COc1nc(-c2c[nH]c3ccccc23)cnc1N,inactive: 35.7 µM
22,NC(CCSCC(F)F)C(=O)O (configuration not stated),inactive: > 100 µM
23,COCC#C[C@@]1(O)CCCCC1CC(OC)OC (some centres not stated),inactive: > 100 µM
24,C=CC(C)(C)c1cc([C@@H]2COc3cc(O)ccc3C2=O)c(O)c(O)c1OC,inactive: 32.8 µM
25,C=CCCCN1CCCC(C)C1=S (configuration not stated),inactive: > 100 µM

row,SMILES,GI50
1,Sc1nnc(C23CC4CC(CC(C4)C2)C3)n1-c1ccc(Cl)cc1,inactive: 14.8 µM
2,CC1(C)CC(=O)c2c(oc3cc(O)c(O)cc23)C1,inactive: 51.6 µM
3,CC[P+](C)(Cc1ccccc1)c1ccccc1 (configuration not stated),inactive: > 100 µM
4,Cc1ccc(NC(=O)CC(=O)n2nc(-c3ccccc3)c(/N=N/c3ccccc3Cl)c2-c2ccccc2)cc1,inactive: 48.4 µM
5,COC(=O)CC(=O)C[P+](c1ccccc1)(c1ccccc1)c1ccccc1,inactive: > 218 µM
6,Cc1ccc(S(=O)(=O)n2cc(C#N)c(C#N)c2)cc1,inactive: 44.4 µM
7,NC(=O)CN1C=CCC(C(N)=O)=C1 [CARICOTAMIDE],inactive: > 100 µM
8,CC(=O)OCC1OC(n2c(Br)nc3c2c(=O)n(C)c(=O)n3C)C(OC(C)=O)C1OC(C)=O (configuration not stated),inactive: 42.1 µM
9,[O-][S+](CC1(O)CCCCC1)c1ccccc1 (configuration not stated),inactive: > 100 µM
10,N#CC(/N=N/c1ccccc1C(=O)O)C(N)=O (configuration not stated),inactive: > 100 µM
11,O=c1[nH]c2nccnc2c2c([N+](=O)[O-])cccc12,inactive: > 100 µM
12,CC12Nc3ccccc3C1=C(c1ccccc1)CC1C(=O)OC(=O)C12 (configuration not stated),inactive: > 100 µM
13,Clc1ccc(C2=NOC3C4CCC(C4)C23)cc1 (configuration not stated),inactive: > 100 µM
14,CCCC[S+]([O-])CC(CO)NC(=O)/C=C/c1c(C)[nH]c(=O)[nH]c1=O (configuration not stated),inactive: 4.12 µM
15,CC(=O)OCC1OC(n2c(N)c(C#N)c(-c3cccc(Cl)c3)c(C#N)c2=S)C(OC(C)=O)C(OC(C)=O)C1OC(C)=O (configuration not stated),inactive: 43.2 µM
16,c1ccc2c(c1)CCCC/C2=N/OCC1CO1 (configuration not stated),inactive: > 100 µM
17,CN(C)c1ccccc1CC(c1c[nH]c2ccccc12)c1c[nH]c2ccccc12,inactive: 14 µM
18,COc1c2c(cc3c1C(O)N1CC[C@]34[C@H]3O[C@H]3[C@H](OC)C[C@@H]14)OCO2 (some centres not stated),inactive: 78.2 µM
19,O=C(Nc1ccc(-c2cn3ccccc3n2)cc1)c1cc(Br)ccc1O,inactive: > 100 µM
20,COC(=O)/C(C=O)=C/Sc1ccccc1,inactive: 28.4 µM
21,O=C(O)c1oc2cccc3c2c1CCC3,inactive: > 100 µM
22,COc1ccc(/C(C)=N/NC(=O)c2ccncc2)cc1OC,inactive: > 10 µM
